About 300 (0.091%) of roughly 330,000 compounds were called active. The inconclusive results got no clear call from the source; some entries with a clear call stand among them for comparison. Calls follow the shape of the dose curve; as a rule, active = well fitted inhibition curve with a large enough effect; inconclusive = small, poorly fitted or top-dose-only effect, or effect the other way, or another doubt; inactive = no such curve, though single readings can be large or run the other way. No potency is given beside an inconclusive call; the fits are too rough.
The compounds below were run against Lysosomal acid glucosylceramidase (Homo sapiens) (UniProt P04062) (assay: qHTS Assay for Inhibitors and Activators of N370S glucocerebrosidase as a Potential Chaperone Treatment of Gaucher Disease). Conditions: N370S GC spleen homogenate, 4MU-glucoside fluorescence; activity change, negative = inhibition: at 59.4 µM (top of the series) unless noted.
In the case of COc1ccc(C)cc1N(C(=O)c1snc(C(N)=O)c1N)C(C(=O)NC1CCCC1)c1ccc(F)cc1 (configuration not stated), the Potency is reported as inconclusive [activator, single point].
For CNC(=O)/C(C#N)=C/c1c(N(Cc2ccccc2)Cc2ccccc2)nc2c(C)cccn2c1=O, the Potency was inconclusive [activator, partial curve].
In the case of CC(C)=CC(=O)Nc1nnc(-c2ccccc2C)s1, the “activity change, negative = inhibition” value is reported as inactive: -2.22%.
In the case of C=CCn1c(SCC(=O)Nc2ccccc2OC)nc2c([nH]c3ccccc32)c1=O, the Potency is reported as inconclusive [activator, partial curve].
In the case of Cc1nn(-c2ccccc2)c(Cl)c1/C=C1\SC(=S)N(CCCCCC(=O)O)C1=O, the “activity change, negative = inhibition” value is reported as inactive: -6.4%.
Cc1cccc(-c2nc(C#N)c(NCc3ccco3)o2)c1 was tested, and the Potency was inconclusive [activator, partial curve, poor fit].
Cc1ncc([N+](=O)[O-])n1CCOC(=O)Nc1ccc(Cl)c(Cl)c1 was tested, and the Potency was inconclusive [inhibitor, full curve, poor fit].
CCOC(=O)CN(Cc1cc(OC)cc(N(C)C)c1OC)C(=O)C1CC(CO[Si](C)(C)C(C)(C)C)=CN1C(=O)OC(C)(C)C (configuration not stated) was tested, and the “activity change, negative = inhibition” value was inactive: -5.5%.
With Cc1ccc(N=C2NC(=O)/C(=C/c3cccn3C)S2)cc1 the “activity change, negative = inhibition” value was inactive: -22.9%.
CCOC(=O)c1ccc(N=c2sc(C(=O)OC)cc(=O)n2CCCN2CCOCC2)cc1 was tested, and the Potency was inconclusive [inhibitor, partial curve, poor fit].
With Cc1cc(C(=O)N2CCN(c3ccc(C(F)(F)F)cn3)CC2)c(C)o1 the Potency was inconclusive [inhibitor, single point].
COc1ccc(C(=O)c2oc3ccccc3c2N)cc1 was tested, and the Potency was inconclusive [activator, partial curve, poor fit].
With COc1cccc(NC(=O)NCc2cccn2C)c1 the Potency was inconclusive [inhibitor, single point].
With CCC(C)(C)c1ccc(Oc2ccc(NC(=O)COC(=O)C3=COCCO3)cc2)cc1 the Potency was inconclusive [activator, partial curve].
For CC(C)(C)OC(=O)NCc1ccc(CNC(=O)c2[nH]cnc2C(=O)N[C@@H](Cc2ccccc2)C(=O)OC(C)(C)C)cc1, the Potency was inconclusive [activator, single point].
COc1ccc(/C=N/Nc2nc3ccccc3c(=O)[nH]2)cc1 was tested, and the Potency was inconclusive [activator, single point].
COc1ccc(/C=N/NC(=O)c2nc(-c3ccccc3)cc(-c3ccccc3)n2)cc1O was tested, and the Potency was inconclusive [inhibitor, partial curve].
COc1ccccc1OCC(=O)NCCSCc1ccccc1Cl was tested, and the Potency was inconclusive [activator, partial curve].
For O=c1cc(O)c2sc(Nc3ccc(Cl)c(F)c3)nc2[nH]1, the Potency was inconclusive [inhibitor, single point].
In the case of COC(=O)c1ccc(COc2ccc(C3C4=C(CCCC4=O)Nc4onc(C)c43)cc2)cc1 (configuration not stated), the Potency is reported as inconclusive [inhibitor, single point].
With Cc1cc(C)c(S(=O)(=O)Nc2nnc(C3CCCCC3)s2)c(C)c1 the Potency was inconclusive [activator, partial curve].
In the case of O=C(CC1COc2ccccc2O1)NCCc1ccccc1 (configuration not stated), the Potency is reported as inconclusive [activator, partial curve, poor fit].
With Cc1cc(C)n(-c2ccc(C(=O)NC3=NCCS3)cc2)n1 the “activity change, negative = inhibition” value was inactive: -4.84%.
In the case of C=CCN1C(c2ccccc2)=CS/C1=C(/C#N)c1nnc(N2CCOCC2)n1-c1ccccc1, the Potency is reported as inconclusive [inhibitor, single point].
In the case of Cc1cn([C@H]2C[C@@H](N=[N+]=[N-])[C@@H](CO)O2)c(=O)[nH]c1=O, the “activity change, negative = inhibition” value is reported as inactive: 0.563%.
With C/C=C(\CS(=O)(=O)c1ccccc1)S(=O)(=O)c1ccccc1 the “activity change, negative = inhibition” value was inactive: -12.6%.
With Fc1cccc2sc(Nc3nc4cc5c(cc4s3)OCCO5)nc12 the “activity change, negative = inhibition” value was inactive: 2.37%.
In the case of CCc1ccc(C(C)NC(=O)c2cc(C)oc2C)cc1 (configuration not stated), the “activity change, negative = inhibition” value is reported as inactive: 2.44%.
Cc1cc2oc(=O)cc(CSc3nnc(-c4cccs4)o3)c2cc1C(C)C was tested, and the activity change, negative = inhibition was inconclusive: 34.6% [activator].
CCc1ccccc1N(C(=O)c1snc(C(N)=O)c1N)C(C(=O)NCC1CCCO1)c1ccc(OC)c(OC)c1 (configuration not stated) was tested, and the Potency was inconclusive [activator, partial curve].
In the case of COc1ccccc1NC(=O)Nc1ccc(Cc2ccncc2)cc1, the Potency is reported as inconclusive [activator, single point].
For COc1ccc2[nH]cc(CCNc3nc(-c4ccc(N(C)C)cc4)nc4ccccc34)c2c1, the Potency was inconclusive [inhibitor, partial curve].
With O=C(NC1CCCCCC1)c1cc2c(=O)n3ccccc3nc2s1 the Potency was inconclusive [activator, partial curve].
For Oc1ccc(Cl)cc1CNCC1CCCO1 (configuration not stated), the “activity change, negative = inhibition” value was inactive: -5.71%.
In the case of CCOC(=O)c1sc(C)c2c1NC(c1ccc(Cl)cc1)NC2=O (configuration not stated), the “activity change, negative = inhibition” value is reported as inactive: 8.25%.
In the case of Cc1cc(C)c2[nH]c(=O)c(C(c3nnnn3C(C)(C)C)N(Cc3ccco3)CC3CCCO3)cc2c1 (configuration not stated), the activity change, negative = inhibition is reported as inconclusive: 36.9% [activator].
CC1(C)CC(=O)C=C(NCCc2ccccc2)C1 was tested, and the “activity change, negative = inhibition” value was inactive: -2.2%.
With CC1CCC(C(=O)O)NC1c1cccc(N2CCOCC2)c1 (configuration not stated) the activity change, negative = inhibition was inactive: -7.42% [at 12.8 µM].
With Clc1ccc2nc(-c3ccncc3)cc(-c3ccccc3)c2c1 the Potency was inconclusive [activator, partial curve, poor fit].
With Cc1cc(F)ccc1S(=O)(=O)Nc1ccccc1C(=O)Nc1ncn[nH]1 the activity change, negative = inhibition was inactive: 9.03% [at 2.35 µM].
Cc1ccc(NS(=O)(=O)c2cc3[nH]c(=O)c(=O)[nH]c3cc2C)c(C)c1 was tested, and the Potency was inconclusive [inhibitor, partial curve].
COc1ccc(C(=O)Nc2ccccc2-c2ccccc2)cc1Cl was tested, and the Potency was inconclusive [activator, partial curve].
For COc1ccc(C(C(=O)NC2CCCC2)N(Cc2ccccc2)C(=O)c2snc(C(N)=O)c2N)cc1OC (configuration not stated), the Potency was inconclusive [activator, single point].
For Nc1nc(-c2ccccc2)c(N=Nc2cccnc2)s1, the Potency was inconclusive [inhibitor, full curve].
In the case of Cc1sc2ncnc(OCC(=O)N3CCN(C(=O)c4ccco4)CC3)c2c1C, the activity change, negative = inhibition is reported as inconclusive: 31.9% [activator].
CCCCOc1ccc(C2C(C(=O)c3cccs3)=C(O)C(=O)N2CCN2CCOCC2)cc1 (configuration not stated) was tested, and the Potency was inconclusive [inhibitor, partial curve].
With O=C(Nc1ccc(OC(F)(F)F)cc1)c1cnc2n(c1=O)CCS2 the Potency was inconclusive [activator, partial curve, poor fit].
For O=C(Nc1cnn(Cc2ccccc2)c1)NC12CC3CC(CC(C3)C1)C2, the Potency was inconclusive [activator, partial curve, poor fit].
Cc1ccc(NC(=O)C(OC(=O)c2cc(C)oc2C)c2ccccc2)cc1 (configuration not stated) was tested, and the Potency was inconclusive [activator, partial curve].
O=C(CSc1ncn(-c2ccccc2)n1)Nc1nc2c(s1)CCCC2 was tested, and the Potency was inconclusive [activator, partial curve].
In the case of CC1(C)Cc2c(C#N)c(N3CCN(C(=O)c4ccco4)CC3)nc(-c3ccco3)c2CS1, the “activity change, negative = inhibition” value is reported as inactive: 2.83%.
In the case of CCC(N=c1cc(-c2ccc(OC)cc2)oc2ccc(C)cc12)C(=O)O (configuration not stated), the Potency is reported as inconclusive [activator, single point].
For CCOC(=O)c1c(C)oc2c1c(CN1CCN(C(=O)OCC)CC1)c(O)c1ccccc12, the “activity change, negative = inhibition” value was inactive: -6.87%.
For COc1ccc(-c2cc(C3C4C=CCCC4(C)C(=O)N3Cc3ccccc3)ccc2F)cc1 (configuration not stated), the “activity change, negative = inhibition” value was inactive: -1.49%.
COC(=O)c1c(NC(=O)COC(=O)C2CCC2)sc(C)c1C was tested, and the Potency was inconclusive [activator, partial curve].
C/C(=C\c1ccc(F)cc1)C(=O)c1c(C)cc(C)[nH]c1=O was tested, and the Potency was inconclusive [inhibitor, single point].
With N#Cc1c(NCCCO)nc(NCc2ccccc2)c2c1CCN(Cc1ccccc1)C2 the activity change, negative = inhibition was inconclusive: 25.7% [activator].
In the case of O=C1CC(=O)Nc2cc(S(=O)(=O)N3CCOc4ccccc43)ccc2N1, the Potency is reported as inconclusive [inhibitor, partial curve].
For S=C(Nc1ccc(N2CCOCC2)cc1)Nc1ccc2nc(-c3ccco3)c(-c3ccco3)nc2c1, the “activity change, negative = inhibition” value was inactive: -16.4%.
NC(N)=Nc1nc2ccc([N+](=O)[O-])cc2[nH]1 was tested, and the Potency was inconclusive [inhibitor, partial curve, poor fit].
In the case of O=C(c1ccccc1F)N1CCC(N2CCCCCC2)CC1, the activity change, negative = inhibition is reported as inconclusive: 32.2% [activator].
With O=C(NCCc1ccccc1F)C1CCCN1S(=O)(=O)c1ccc2ccccc2c1 (configuration not stated) the Potency was inconclusive [activator, partial curve].
With O=C(O)c1cc(S(=O)(=O)O)cc(Nc2c3ccccc3nc3ccccc23)c1O the Potency was inconclusive [activator, partial curve].
Cc1cccc(-c2nc(CS(=O)CC(=O)N3CC(C)CC(C)C3)c(C)o2)c1 (configuration not stated) was tested, and the “activity change, negative = inhibition” value was inactive: -4.68%.
O=C(NC1CCCCC1)N(Cc1nc2ccccc2c(=O)[nH]1)C1CCCCC1 was tested, and the Potency was inconclusive [activator, partial curve, poor fit].
With CCOc1ccc(N(CC(=O)NCCc2ccc(F)cc2)S(=O)(=O)c2ccccc2)cc1 the “activity change, negative = inhibition” value was inactive: -4.73%.
In the case of CC1=CC(C)(C)N2C(=O)C(=Nc3ccc(O)cc3)c3cccc1c32, the Potency is reported as inconclusive [inhibitor, single point].

From PubChem BioAssay AID2101 (National Center for Advancing Translational Sciences (NCATS), 2009)
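For activity change, negative = inhibition in this document: 0% = full enzyme activity and -100% = no enzyme basal.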
Potency is read from the fitted curve at half-maximal effect.
